From the supplement of paper PMC9938546
Structures can show the parent of a compound that is named as a salt. The list shows a part of the results. Single values are uncertain, as repeats are few or missing.

tested on: HCT116-GFP; experiment: HCT116-GFP viability (GFP intensity) relative to untreated control, monoculture; higher = less cancer cell killing; conditions: culture: HCT116-GFP monoculture; 10 µM; 72 h
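Further: viability estimated indirectly by image-based GFP quantification with live-cell imaging of the constitutively GFP-expressing human colorectal cancer line, no immune cells added.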

Structure (SMILES) | HCT116-GFP viability
Cc1oncc1C(=O)Nc1ccc(C(F)(F)F)cc1 [Leflunomide] | 61.9%
O=C(O)c1cccnc1Nc1cccc(C(F)(F)F)c1 [Niflumic acid] | 111%
CC(CCc1ccccc1)NCC(O)c1ccc(O)c(C(N)=O)c1 (stereo not given) [Labetalol hydrochloride] | 103%
CCOC(=O)[C@H](CCc1ccccc1)N[C@@H](C)C(=O)N1Cc2ccccc2C[C@H]1C(=O)O [Quinapril hydrochloride] | 109%
NS(=O)(=O)c1cc(C(=O)O)cc(N2CCCC2)c1Oc1ccccc1 [Piretanide] | 86.1%
CN(C)CCCN1c2ccccc2Sc2ccccc21 [Promazine hydrochloride] | 98.5%
Cc1cc(C(C)(C)C)c(O)c(C)c1CC1=NCCN1 [Oxymetazoline hydrochloride] | 92.2%
COc1ccc([C@@H]2CC(=O)c3c(O)cc(O[C@@H]4O[C@H](CO[C@@H]5O[C@@H](C)[C@H](O)[C@@H](O)[C@H]5O)[C@@H](O)[C@H](O)[C@H]4O)cc3O2)cc1O [Hesperidin] | 96%
CC(C)(C(=O)O)c1ccc(C(O)CCCN2CCC(C(O)(c3ccccc3)c3ccccc3)CC2)cc1 (stereo not given) [Fexofenadine hydrochloride] | 79.7%
Cc1c(C)c2c(c(C)c1O)CCC(C)(COc1ccc(CC3SC(=O)NC3=O)cc1)O2 (stereo not given) [Troglitazone] | 57.2%
COC(c1ccccc1)(c1ccccc1)[C@H](Oc1nc(C)cc(C)n1)C(=O)O [Ambrisentan] | 95.8%
CSc1ccc2c(c1)C(N1CCN(C)CC1)Cc1ccccc1S2 (stereo not given) [Methiothepin maleate] | 47.7%
CC(C(=O)O)c1ccc2c(c1)Cc1cccnc1O2 (stereo not given) [Pranoprofen] | 98.1%
CNCCCC1c2ccccc2C=Cc2ccccc21 [Protriptyline hydrochloride] | 80.3%
CCCCCCC[N+](CC)(CC)CCCCc1ccc(Cl)cc1 [Clofilium tosylate] | 38.7%
C[C@]12CCC(=O)C=C1CC[C@@H]1[C@@H]2[C@@H](O)C[C@@]2(C)[C@H]1CC[C@]2(O)C(=O)CO [Hydrocortisone base] | 96%
Oc1ncnc2[nH]ncc12 [Allopurinol] | 96%
CCCc1cc(=O)[nH]c(=S)[nH]1 [Propylthiouracil] | 101%
Cc1onc(-c2ccccc2)c1-c1ccc(S(N)(=O)=O)cc1 [Valdecoxib] | 98%
COc1ccc(CCN(C)CCCC(C#N)(c2ccc(OC)c(OC)c2)C(C)C)cc1OC (stereo not given) [Verapamil hydrochloride] | 85.5%
C[N+]1(CCCCC[N+]2(C)CCCC2)CCCC1 [Pentolinium bitartrate] | 98.1%
Fc1ccc(C(c2ccc(F)cc2)N2CCN(C/C=C/c3ccccc3)CC2)cc1 [Flunarizine dihydrochloride] | 68.2%
CCCCC(=O)O[C@H]1CC[C@H]2[C@@H]3CCc4cc(O)ccc4[C@H]3CC[C@]12C [Estradiol Valerate] | 81.9%
Cn1c(NCCN(CCO)CCCc2ccc([N+](=O)[O-])cc2)cc(=O)n(C)c1=O [Nifekalant] | 98.9%

Structure (SMILES) | HCT116-GFP viability
N=C(N)c1ccc(OCCCCCOc2ccc(C(=N)N)cc2)cc1 [Pentamidine isethionate] | 45.5%
OCCOCCN1CCN(C2=Nc3ccccc3Sc3ccccc32)CC1 [Quetiapine hemifumarate] | 95.3%
CC1(C)S[C@@H]2[C@H](NC(=O)[C@H](N)c3ccc(O)cc3)C(=O)N2[C@H]1C(=O)O [Amoxicillin] | 99.7%
CCC(=O)O[C@@H](O[P@](=O)(CCCCc1ccccc1)CC(=O)N1C[C@H](C2CCCCC2)C[C@H]1C(=O)O)C(C)C [Fosinopril] | 94.6%
COc1cccc2c1C(=O)c1c(O)c3c(c(O)c1C2=O)C[C@@](O)(C(=O)CO)C[C@@H]3O[C@H]1C[C@H](N)[C@H](O)[C@H](C)O1 [Doxorubicin hydrochloride] | 6.27%
CN[C@@H]1[C@H](O[C@H]2[C@H](O[C@H]3[C@H](O)[C@@H](O)[C@H](N=C(N)N)[C@@H](O)[C@@H]3N=C(N)N)O[C@@H](C)[C@]2(O)C=O)O[C@@H](CO)[C@H](O)[C@H]1O [Streptomycin sulfate] | 104%
Nc1nc(Cl)nc2c1ncn2[C@H]1C[C@H](O)[C@@H](CO)O1 [Cladribine] | 14.1%
CCCC1O[C@@H]2C[C@H]3[C@@H]4CCC5=CC(=O)C=C[C@]5(C)[C@H]4[C@@H](O)C[C@]3(C)[C@]2(C(=O)CO)O1 (stereo not given in full) [Budesonide] | 100%
CC(C(=O)O)c1cccc(C(=O)c2ccccc2)c1 (stereo not given) [Ketoprofen] | 107%
C#C[C@]1(O)CC[C@H]2[C@@H]3CCc4cc(O)ccc4[C@H]3CC[C@@]21C [Ethinylestradiol] | 74%
CCCCN(CCCC)CCC(O)c1cc2c(Cl)cc(Cl)cc2c2cc(C(F)(F)F)ccc12 (stereo not given) [Halofantrine hydrochloride] | 67.5%
CCOC(=O)C1=C(C)NC(C)=C(C(=O)OCC)C1c1ccccc1/C=C/C(=O)OC(C)(C)C [Lacidipine] | 67.8%
CCOc1cc(CC(=O)N[C@@H](CC(C)C)c2ccccc2N2CCCCC2)ccc1C(=O)O [Repaglinide] | 76.3%
COc1c(N2C[C@@H]3CCCN[C@@H]3C2)c(F)cc2c(=O)c(C(=O)O)cn(C3CC3)c12 [Moxifloxacin] | 94.1%
COc1ccc(C(=O)c2ccccc2)c(O)c1 [Oxybenzone] | 97%
COc1ncnc(NS(=O)(=O)c2ccc(N)cc2)c1OC [Sulfadoxine] | 99.4%
CC(=O)OCC(=O)[C@@]1(O)[C@H](C)C[C@H]2[C@@H]3CCC4=CC(=O)C=C[C@]4(C)[C@@]3(F)[C@@H](O)C[C@@]21C [Dexamethasone acetate] | 112%
COc1ccc(C(=O)CC(=O)c2ccc(C(C)(C)C)cc2)cc1 [Avobenzone] | 81.2%
Nc1nc2c(ncn2COCCO)c(=O)[nH]1 [Acyclovir] | 101%
CC(C)(C)NC(=O)[C@@H]1C[C@@H]2CCCC[C@@H]2CN1C[C@@H](O)[C@H](Cc1ccccc1)NC(=O)[C@H](CC(N)=O)NC(=O)c1ccc2ccccc2n1 [Saquinavir mesylate] | 91.3%
CCCCCN(CCCCC)C(=O)C(CCC(=O)O)NC(=O)c1ccc(Cl)c(Cl)c1 (stereo not given) [Lorglumide sodium salt] | 100%
O=C(CCCCCCC(=O)Nc1ccccc1)NO [Vorinostat] | 4.57%
CC[C@H]1OC(=O)C[C@@H](O)[C@H](C)[C@@H](O[C@@H]2O[C@H](C)[C@@H](O[C@H]3C[C@@](C)(O)[C@@H](O)[C@H](C)O3)[C@H](N(C)C)[C@H]2O)[C@@H](CC=O)C[C@@H](C)C(=O)/C=C/C(C)=C/[C@@H]1CO[C@@H]1O[C@H](C)[C@@H](O)[C@@H](OC)[C@H]1OC [Tylosin] | 86.4%
C[C@]12C[C@H](O)[C@H]3[C@@H](CCC4=CC(=O)CC[C@@]43C)[C@@H]1CC[C@@H]2C(=O)CO [Corticosterone] | 82.9%

Structure (SMILES) | HCT116-GFP viability
COC(=O)C1=C(C)NC(C)=C(C(=O)OC2CCCN(Cc3ccccc3)C2)C1c1cccc([N+](=O)[O-])c1 (stereo not given) [Benidipine hydrochloride] | 62.9%
CC1(C)O[C@@H]2C[C@H]3[C@@H]4CCC5=CC(=O)C=C[C@]5(C)[C@H]4[C@@H](O)C[C@]3(C)[C@]2(C(=O)CO)O1 [Desonide] | 121%
CCN(CC)C(=S)SSC(=S)N(CC)CC [Disulfiram] | 66.5%
C/C(=C(\CCOP(=O)(O)O)SC(=O)c1ccccc1)N(C=O)Cc1cnc(C)nc1N [Benfotiamine] | 103%
Nc1c2c(nc3ccccc13)CCCC2 [Tacrine hydrochloride] | 114%
O=C1CN(/N=C/c2ccc([N+](=O)[O-])o2)C(=O)N1 [Nitrofurantoin] | 87.2%
Cc1ccccc1OCC(O)CO (stereo not given) [Mephenesin] | 94.7%
C[C@H](N)[C@H](O)c1cccc(O)c1 [Metaraminol bitartrate] | 98.7%
CCN(CC)CCOC(=O)C(Cc1cccc2ccccc12)CC1CCCO1 (stereo not given) [Nafronyl oxalate] | 102%
O=C1CN(/N=C/c2ccc(-c3ccc([N+](=O)[O-])cc3)o2)C(=O)N1 [Dantrolene sodium salt] | 76.9%
CCOC(=O)n1ccn(C)c1=S [Carbimazole] | 94.4%
CC1(C)S[C@@H]2[C@H](NC(=O)[C@H](C(=O)O)c3ccsc3)C(=O)N2[C@H]1C(=O)O [Ticarcillin sodium] | 90.7%
CN[C@@H]1[C@@H](O)[C@@H](O[C@@H]2[C@@H](O)[C@H](O[C@H]3OC(CN)=CC[C@H]3N)[C@@H](N)C[C@H]2N)OC[C@]1(C)O [Sisomicin sulfate] | 92%
Cc1cc(NS(=O)(=O)c2ccc(N)cc2)no1 [Sulfamethoxazole] | 101%
NCCCC(O)(P(=O)(O)O)P(=O)(O)O [Alendronate sodium] | 98.6%
CNC[C@H](O)[C@@H](O)[C@H](O)[C@H](O)CO [Meglumine] | 77.5%
Nc1ccc(S(=O)(=O)Nc2cnc3ccccc3n2)cc1 [Sulfaquinoxaline sodium salt] | 96.9%
N=C(N)NCc1cccc(I)c1 [Iobenguane sulfate] | 95%
C[C@H]1NC(=O)NC1=O [Methylhydantoin-5-(D)] | 93.8%
Cc1ccnc(NS(=O)(=O)c2ccc(N)cc2)n1 [Sulfamerazine] | 89.2%
NC(=O)OCC(COC(N)=O)c1ccccc1 [Felbamate] | 97.3%
CC(C)n1c(/C=C/C(O)CC(O)CC(=O)O)c(-c2ccc(F)cc2)c2ccccc21 (stereo not given) [Fluvastatin sodium salt] | 28.8%
